Results from PubChem BioAssay AID1159614 (National Center for Advancing Translational Sciences (NCATS), 2016).
The campaign covered roughly 45,000 compounds. About 65 (0.1%) were called active. Calls follow the shape of the dose curve; as a rule, active = well fitted activation curve with a large enough effect; inconclusive = small, poorly fitted or top-dose-only effect; inactive = no such curve, though single readings can be large or run the other way. This is one part of the list.

These compounds were tested against Galactocerebrosidase (Homo sapiens) (UniProt P54803) (assay: A Novel Cell-Based Assay to Identify Small Molecules for B -Galactocerebrosidase). Conditions: 145M-Twi-hGALC-G270D cells (Twitcher mouse brain line with human GALC G270D), HMU-beta-Gal fluorescence, 48 h; series mostly up to 57.5 µM; activation: at the top concentration.
Method in brief: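 Live 145M-Twi cells (Twitcher mouse brain-derived, GALC-null) stably expressing human GALC-G270D, with a wild-type GALC line, were compound-treated. Residual GALC activity was then read as fluorescence from 0.1 mM final HMU-β-gal at pH 5.2; higher signal means activation.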
Also: 0% is about no effect; nearly all actives have a fitted effect of over 65% in size.

Sequence of UniProt P54803 (P54803 whole entry, looked up): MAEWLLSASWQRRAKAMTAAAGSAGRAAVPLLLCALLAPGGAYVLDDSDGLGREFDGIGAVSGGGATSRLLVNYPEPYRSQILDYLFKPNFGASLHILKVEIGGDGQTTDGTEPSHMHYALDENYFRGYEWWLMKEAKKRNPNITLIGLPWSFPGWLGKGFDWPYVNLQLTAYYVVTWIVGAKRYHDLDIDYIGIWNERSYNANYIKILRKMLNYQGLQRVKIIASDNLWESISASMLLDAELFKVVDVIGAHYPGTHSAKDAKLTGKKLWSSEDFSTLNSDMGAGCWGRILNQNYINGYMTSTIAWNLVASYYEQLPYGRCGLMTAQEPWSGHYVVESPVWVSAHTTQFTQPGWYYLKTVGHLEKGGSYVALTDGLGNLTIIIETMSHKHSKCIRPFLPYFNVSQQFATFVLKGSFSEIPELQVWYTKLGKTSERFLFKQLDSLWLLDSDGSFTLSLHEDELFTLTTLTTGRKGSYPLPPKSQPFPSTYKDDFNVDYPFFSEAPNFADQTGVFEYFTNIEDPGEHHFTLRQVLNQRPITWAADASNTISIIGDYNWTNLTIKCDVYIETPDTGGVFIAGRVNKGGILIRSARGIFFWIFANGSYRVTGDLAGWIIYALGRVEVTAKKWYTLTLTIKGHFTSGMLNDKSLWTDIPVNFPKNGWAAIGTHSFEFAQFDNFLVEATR

activation, inactive:
Cc1cccc(C)c1OCc1nc2c3cnn(-c4cccc(F)c4)c3ncn2n1 -14.9%
COc1ccc(CCNC(=O)CCCn2c(=O)c3ccccc3n(Cc3ccccc3C)c2=O)cc1OC -2.63%
Cc1ccc(-n2ncc(C(=O)NCCN3CCc4ccccc4C3)c2C2CCN(C(=O)OC(C)(C)C)CC2)cc1 -5.16%
CCOC(=O)c1cc(S(=O)(=O)N2CCN(c3ccc(OC)cc3)CC2)[nH]n1 -1.41%
Cc1ccc(CNC(=O)c2c3c(nc4ccccc24)C(=O)N(C2CCCCC2)C3)cc1 -20.1%
COc1cc(C2CC(=O)c3c([nH]c(C(=O)OC4CCCCC4)c3C)C2)cc(OC)c1OC (stereo unspecified) -16.7%
CCN1CCN(c2cc3c(cc2F)c(=O)c(C(=O)O)cn3C2CC2)CC1 -0.764%
CCCN(C(=O)CCc1nc(-c2ccccc2F)no1)c1ccc(CC)cc1 -12.2%
COc1ccc(NC(=O)c2cc3c(=O)[nH]c4ccccc4c3n2C)cc1Cl -3.23%
Cc1ccc(C)c(N2CCN(C(=O)c3ccc(CS(=O)(=O)c4ccc(Br)cc4)o3)CC2)c1 -9.18%
CCOc1cc2[nH]c(=O)n(Cc3ccc(C(=O)NCCN(CC)CC)cc3)c(=O)c2cc1OCC -12.9%
Cc1ccccc1NC(=O)c1sc2nc3c(cc2c1N)CCCC3 -3.75%
COc1ccc(CC(=O)NCc2nc3cccnc3n2Cc2ccc(F)cc2)cc1OC -9.41%
COc1ccc(Cl)cc1NC(=O)CSc1nccn1Cc1ccco1 -12.7%
CCc1ccc(CN2C(=O)c3ccccc3C2C(=O)NCCc2ccc(OC)c(OC)c2)cc1 (stereo unspecified) -11.3%
CN(CC(=O)Nc1cccc(C(F)(F)F)c1)S(=O)(=O)c1ccc2[nH]c3c(c2c1)CCCC3 -12.7%
COc1cccc(NC(=O)CSc2nc3ccccc3nc2N2CCOCC2)c1 -19%
Cc1csc2nc(COC(=O)c3ccccc3NC(=O)c3ccc(F)cc3)cc(=O)n12 -1.77%
CCC(Sc1nncn2c1cc1occc12)C(=O)Nc1ccc(C)c(Cl)c1 (stereo unspecified) -8.92%
Cc1ccc(C(=O)NCC(c2cccs2)S(=O)(=O)c2cccs2)cc1 (stereo unspecified) -7.33%
CCN(C(=O)CSc1nc2ccccc2n1Cc1cc(C)ccc1C)c1ccccc1 -42.3%
Cc1c2cnn(CC(=O)NC(C)C)c(=O)c2c(C)n1Cc1ccccc1Cl -8.56%
COc1ccccc1/C=C/c1nc(C#N)c(N(C)C)o1 -20.9%
CCOC(=O)N1CCc2c(sc3c2c(=O)n(-c2ccc(CC)cc2)c(=O)n3CC(=O)c2ccc(F)cc2)C1 -3.25%
Cc1c2cnn(CC(=O)Nc3cccc(C(F)(F)F)c3)c(=O)c2c(C)n1Cc1ccccc1Cl -12.6%
COc1cc(C(=O)Nc2ccc3nc(SCc4ccccc4)sc3c2)cc(OC)c1OC -12.5%
CCCNC(=O)C1CCC(Cn2c(=O)c3sccc3n(CC(=O)N3CCC(C)CC3)c2=O)CC1 (stereo unspecified) -8.48%
Cc1cccc(OCC(=O)N(Cc2sccc2C)C2CCS(=O)(=O)C2)c1 (stereo unspecified) -10.4%
COc1ccc(N2CCN(C(=O)c3ccc(-c4nc(COc5ccccc5)c(C)o4)cc3)CC2)cc1 -14.9%
COc1cccc(C2C(C(=O)Nc3ccc(C)cc3C)=C(C)Nc3c(C(=O)Nc4cccc(C)c4)cnn32)c1OC (stereo unspecified) -14.9%
COc1cccc(N2CCN(C3C(=O)c4ccccc4N3C(C)=O)CC2)c1 (stereo unspecified) -11.5%
CCOc1ccc(OCC)c(NC(=O)CN(C)S(=O)(=O)c2ccc3c(c2)CCCC(=O)N3)c1 -6.76%
O=C(Cn1nc(-c2ccc(Cl)cc2)ccc1=O)NCc1ccccc1Cl -15.1%
COc1ccc(N2CCN(C(=O)c3nc(SC)ncc3Cl)CC2)cc1 -12.5%
CC(NC(=O)CCCn1c(=O)c2cccn2c2cccnc21)c1ccccc1 (stereo unspecified) -0.681%
CCOc1ccc(-c2nc(C#N)c(NCCCOC)o2)cc1 -16.8%
Cc1coc2c(C)c3oc(=O)c(CCC(=O)NCCc4ccc(Cl)cc4)c(C)c3cc12 -10.9%
COc1ccc(C(C)C)cc1S(=O)(=O)NCCc1c(C)[nH]c2ccc(C)cc12 -13%
CC(C)(C)OC(=O)N1CCC(c2c(C(=O)N3CCc4ccccc4C3)cnn2-c2ccc(F)cc2)CC1 -11.4%
CC1=C(c2ccc(C)c(C)c2)S(=O)(=O)N=C1N1CCC(C(=O)NCc2ccc(C)o2)CC1 -4.16%
Cc1ccccc1OCCn1c(CCNC(=O)C(C)(C)C)nc2ccccc21 -13%
CC(NC(=O)CCSCc1ccccc1F)c1ccccc1 (stereo unspecified) -6.83%
COc1ccc(-c2cc(-c3ccccc3)nc(SCC(=O)CC(=O)OC(C)C)c2C#N)cc1 -12.5%
O=C(c1ccc2c(c1)N(Cc1ccccc1F)C(=O)c1ccccc1S2(=O)=O)N1CCCC1 -12.4%
CCN(CCCNC(=O)c1cc2c(=O)n(CC)c3ccccc3c2s1)c1ccccc1 -24%
CCc1ccc(CNC(=O)CSc2cc(=O)n(C)c3ccc(Cl)cc23)cc1 -12.4%
COc1ccc(OC)c(CNC(=O)Cc2ccc(NC(=O)N3CCCCc4ccccc43)cc2)c1 -14.6%
COCCCNC(=O)c1c(NC(=O)Cc2coc3cc(C)cc(C)c23)sc2c1CCCC2 -19.4%
CCCNC(=O)CSc1nc2nc(C)c(Cc3ccccc3Cl)c(C)n2n1 -7.9%
O=C(CSc1nccn1Cc1ccc(F)cc1)Nc1ccc2c(c1)OCCO2 -15.4%
Cc1ccc(-c2noc(-c3nnn(CC(=O)Nc4cc(C)cc(C)c4)c3N)n2)cc1 -6.91%
CCN(CC)S(=O)(=O)c1cc(-c2onc(C)c2C)ccc1OC -11.4%
COc1ccc(CCCc2nnc(SCC(=O)Nc3ccc(C)cc3C)o2)cc1 -7.5%
O=C(NCC(c1cccnc1)N1CCc2ccccc21)c1cccc(C(F)(F)F)c1 (stereo unspecified) -14.9%
Cc1cc(F)ccc1NCc1ccccc1-c1nnc(-c2ccccc2Cl)o1 -11.3%
COc1ccc(C(=O)N(Cc2cc(OC)c(OC)c(OC)c2)CC2CCCO2)cc1 (stereo unspecified) -3.45%
O=C(NCc1cccc(Cl)c1)C1CCN(C(=O)c2sccc2-n2cccc2)CC1 -2.76%
CCc1ccc(C(=O)c2cn(CC(=O)Nc3ccc(OC)cc3OC)c3ccc(CC)cc3c2=O)cc1 -15.7%
CC(=O)N1CCC(N(C(=O)Nc2c(F)cccc2F)C(C)C)CC1 -18.3%
Cc1ccc(N(C)C(=O)c2cnc(N3CCOCC3)c3ccccc23)cc1C -2.41%
COc1cccc(C(=O)Nc2cccc(C(=O)OCc3cc(=O)n4nc(C(C)C)sc4n3)c2)c1 -9.57%
CSc1ccc(C2c3c(-c4ccccc4O)n[nH]c3C(=O)N2Cc2ccncc2)cc1 (stereo unspecified) -12.5%
Cc1cccc2c(=O)cc(CSc3ccccc3NC(=O)c3cccc(Cl)c3)[nH]c12 -11.9%
CCCCn1cc2c(c1-c1ccc(Br)cc1)c(=O)n(C)c(=O)n2C -10.4%
CCOc1ccc(-c2cc3c(=O)n(Cc4nc(-c5ccc(OCC)c(OC)c5)oc4C)ccn3n2)cc1Cl 5.77%
Cc1ccc2nc(CSc3nnc(NC(=O)C(C)C)s3)cc(=O)n2c1 -7.33%
O=c1c2sc3ccccc3c2n(Cc2cccc(Cl)c2)c(=O)n1Cc1ccccc1 0.0435%
CCCN1CCN(c2nnc(-n3cccc3C(=O)Nc3ccccc3C(F)(F)F)s2)CC1 -14.1%
COc1cc(NC(=O)NCCc2c(C)nn(C)c2C)cc(OC)c1OC 4.17%
CCOc1ccc(OCC)c(NC(=O)c2cnn(-c3ccc(F)cc3)c2-n2cccc2)c1 -16.3%
CCc1ccc(-n2nc(C)c3c(C)cc(=O)n(CC(=O)Nc4cc(Cl)ccc4OC)c32)cc1 -16%
Cc1cccc(N2C(=O)CSC23C(=O)N(C)c2ccccc23)c1 (stereo unspecified) 0.0447%
Cc1cccc(OCC(=O)Nc2c(C(=O)Nc3ccc(F)cc3)oc3ccccc23)c1 -8.15%
COc1ccc(NCc2cc3ccc(OC)cc3n(CC(=O)Nc3ccc(C)c(C)c3)c2=O)cc1 -9.75%
Cc1cccc(C(=O)NCCc2nc3ccccc3n2CCC(C)C)c1 -10.2%
CC(=O)Nc1ccc(S(=O)(=O)NCCc2csc3nc(-c4ccc(Cl)cc4)nn23)cc1 -13.2%
CC(C)(C)OC(=O)N1CCC(c2c(C(=O)N3CCN(c4cccc(Cl)c4)CC3)cnn2-c2cccc(Cl)c2)CC1 -22.6%
CCC1CN(C(=O)NCc2ccc(F)cc2)c2cc(C)ccc2O1 (stereo unspecified) -10.2%
CCOC(=O)C1CCN(C(=O)Cn2nc(C)n3c(cc4c(OC)cccc43)c2=O)CC1 7.04%
COc1cccc(C(c2sc3nc(-c4ccco4)nn3c2O)N2CCC(C)CC2)c1 (stereo unspecified) -8.62%
O=C(CSc1ccnc(=O)[nH]1)NCc1ccc(F)cc1 -12.9%
CCc1ccc(NC(=O)C2CCCN(S(=O)(=O)c3ccc4[nH]c(=O)ccc4c3)C2)cc1 (stereo unspecified) -0.392%
COc1ccc(OC)c(CCNC(=O)c2ccc3c(c2)N(Cc2ccccc2)CCS3)c1 -2.8%
COC(=O)c1sccc1S(=O)(=O)N1CCN(c2cccc(C)c2)C(C)C1 (stereo unspecified) -1.53%
Cc1cccc(N(C)S(=O)(=O)c2nnc(NC(=O)C(C)Oc3ccccc3)s2)c1 (stereo unspecified) -2.45%
CN1C(=O)c2ccccc2Sc2ccc(NC(=O)Cc3ccc(Cl)cc3)cc21 -9.11%
O=C(NCc1ccc(Cl)cc1)c1ccc2c(c1)nnn2C1CCCC1 -14.4%
CCCCc1ccc(NC(=O)Cn2cnc3c(oc4ccccc43)c2=O)cc1 -15.1%
Cc1ccc(-n2cc(-c3ccccc3)c3c(N4CCC(C)CC4)ncnc32)cc1Cl -14.8%
COc1ccc(C)cc1NC(=O)CSc1nc(=O)n(Cc2ccco2)c2c1CCC2 0.357%
O=C(NCc1ccccc1)C1CCN(c2ncnc3c2nc2n3CCCCC2)CC1 -11.9%
CCOC(=O)c1cccc(NC(=O)C2COc3ccc(OC)cc3C2)c1 (stereo unspecified) -3.45%
Cc1ccc(CCNC(=O)C2CC(=O)N(CCc3ccc(C)cc3)C2)cc1 (stereo unspecified) -14.8%
CCOC(=O)c1cnc2c(C)cc(C)cc2c1NCCN1CCOCC1 -24.2%
O=C(Nc1ccccc1OCc1cc(=O)n2ccccc2n1)Nc1ccccc1C(F)(F)F -4.9%
Cc1nc2nc(NCc3ccccc3Cl)[nH]n2c(=O)c1Cc1ccccc1 -22.2%
